The values that follow come from PubChem BioAssay AID463173 (ICCB-Longwood Screening Facility, Harvard Medical School, 2010).

Out of some 52,000 compounds screened, about 1,700 (3.3%) were called active. Rule as the data show it: active = survival mostly below about 52% (no sharp cut-off); inactive = mostly above about 56%. Some of the results follow.

For this assay, the system named is Wild type. The assay is described as follows: growth inhibition of S. aureus wild type versus tarO mutant, primary screen, teichoic acid synthesis inhibitors, RN4220, OD600 (AID 463173). Particulars: S. aureus RN4220 wild type/DeltatarO growth, OD600, 18 h, stronger effect = lower value, screened at 18.75 µg/mL (by protocol).
Regarding `CCc1ccc(-n2nc(C)c3c(C)cc(=O)n(CC(=O)Nc4ccccc4C(=O)OC)c32)cc1`, the survival is inactive: 76%.

As for `CCc1cccc(NC(=O)CCS(=O)(=O)c2ccc3nc(C)sc3c2)c1`, the survival was inactive: 78%.

Take `Cc1cccc(-n2ccnc2SCC(=O)Nc2ccc3c(c2)OCO3)c1`: the survival was inactive: 83%.

As for `O=C(Nc1cccc(F)c1)C1CCN(c2nc3ccccc3[nH]2)CC1`, the survival was inactive: 87%.

Turning to `Cc1nc2c3ccccc3nc(NNC(=O)CCC(=O)N3CCN(c4cccc(C(F)(F)F)c4)CC3)n2n1`, the survival was inactive: 84%.

On to `O=C1C2CCc3[nH]c4ccccc4c3C2C(=O)N1Cc1ccccc1` (stereo not drawn), for which the survival is inactive: 117%.

For `COc1ccc(CNc2ncnc3c2cnn3-c2ccc(C)c(C)c2)cc1`, the survival was inactive: 129%.

As for `NC(=O)N1CCCC1=O`, the survival is inactive: 97%.

In the case of `CCNc1nc(=S)nc(NCc2ccccc2)[nH]1`, the survival was inactive: 105%.

As for `COc1cccc(C(=O)NC2CC(=O)N(c3ccc4c(c3)OCCO4)C2)c1OC` (stereo not drawn), the survival is inactive: 153%.

`CCCCSCCCNC(=O)C1CCC(CNS(=O)(=O)c2c(C)cc(C)cc2C)CC1` (stereo not drawn): the survival was inactive: 71%.

Regarding `CCOc1ccc(CNC(=O)c2ccc3c(c2)nc2n3CCC(C)C2)cc1OC` (stereo not drawn), the survival is inactive: 73%.

For the compound `Cc1csc2nc(CCNS(=O)(=O)c3ccc(F)cc3)cn12`, the survival was inactive: 60%.

On to `CC(=O)c1ccc(NC(=O)CCc2c(C)nn(-c3ccc(N4CCCCC4)nn3)c2C)cc1`, for which the survival was inactive: 77%.

Consider `O=C(Nc1ccc2oc(-c3ccc(Cl)cc3)nc2c1)c1ccc2ccccc2c1`, for which the survival was inactive: 86%.

In the case of `O=C(CCOc1ccccc1)N(Cc1cccnc1)c1nc2ccc(F)cc2s1`, the survival is inactive: 69%.

With `CCOC(=O)c1c(NC(=O)c2ccc(OC)c(OC)c2)sc2c1CCCCC2`, the survival is inactive: 69%.

Consider `CCN(C(=O)c1cc2c(=O)oc3ccc(C)cc3c2s1)c1ccccc1F`, for which the survival was inactive: 78%.

`Cn1c(=O)oc2cc(S(=O)(=O)N3CCC(C(=O)N4CCN(c5ccc(Cl)cc5)CC4)CC3)ccc21`: the survival is inactive: 84%.

For the compound `CCOc1ccccc1NC(c1nnc(-c2ccccc2)o1)c1ccc(F)cc1Cl` (stereo not drawn), the survival was active: 2%.

On to `Cc1ccc2nc(SCC(=O)NCc3ccco3)c(C)cc2c1`, for which the survival was inactive: 117%.

For the compound `CCN(CC)c1cc(C)c2cc(NC(=O)c3ccc(F)cc3Cl)ccc2n1`, the survival is inactive: 65%.

For the compound `CCOC(=O)c1cc(C)n(CC2CCC(C(=O)Nc3ccc(C(=O)OC)cc3)CC2)c1C` (stereo not drawn), the survival was inactive: 73%.

Consider `CCOc1ccc(-c2oc3cc(Cl)ccc3c(=O)c2O)cc1OC`, for which the survival is inactive: 103%.

Turning to `Cc1cccc(NS(=O)(=O)c2ccc(NC(=O)N3CCCC3)cc2)c1`, the survival was inactive: 75%.

As for `COc1ccc(C2CC(=O)N(Cc3ccccc3)c3c2c(C)nn3-c2nc(C)cc(C)n2)c(OC)c1` (stereo not drawn), the survival was inactive: 83%.

In the case of `COc1ccc(-n2nc3ccc(NS(C)(=O)=O)cc3n2)cc1Cl`, the survival is inactive: 116%.

Regarding `Cc1ccccc1CNC(=O)Nc1ccc2c(c1)N(C)C(=O)c1ccccc1S2`, the survival is inactive: 87%.

Turning to `O=c1cc(-c2ccccc2)c2ccc3c(c2o1)CN(Cc1ccccc1)CO3`, the survival is inactive: 81%.

Regarding `CCOC(=O)c1c(-c2ccccc2)oc2ccc(N(C(C)=O)S(=O)(=O)c3ccc(C)cc3)cc12`, the survival is inactive: 72%.

Turning to `CCC(=O)N1CCc2cc(Br)cc(S(=O)(=O)CCC(=O)NCCc3ccccc3)c21`, the survival was inactive: 70%.

In the case of `CCc1ccccc1NC(=O)Cn1cc2c(n1)CCC(C)C2` (stereo not drawn), the survival was inactive: 85%.

For the compound `CCc1ccc(NS(=O)(=O)c2ccc3[nH]cc(C(=O)N(C)Cc4ccco4)c(=O)c3c2)cc1`, the survival is inactive: 85%.

Regarding `CCCN(C(=O)CCNC(=O)Cn1cnc2ccccc2c1=O)c1cccc(C)c1`, the survival was inactive: 84%.

Take `CC(C)CN(CCNC(=O)c1cn(C)c2ccc(S(=O)(=O)N3CCCC3)cc2c1=O)CC(C)C`: the survival was inactive: 134%.

For the compound `Cc1nn(-c2ccc(N3CCCCC3)nn2)c(C)c1CCC(=O)NCc1ccc(Cl)cc1`, the survival was inactive: 127%.

For the compound `CCCc1cc(=O)[nH]c(Nc2cc(Cl)ccc2OC)n1`, the survival was inactive: 84%.

With `O=C(NCc1ccco1)C(c1ccccc1)N(C(=O)Cc1cccs1)c1cccnc1` (stereo not drawn), the survival was inactive: 113%.

Consider `CCC(C)NC(=O)c1sc2ncccc2c1-n1c(C)ccc1C` (stereo not drawn), for which the survival was inactive: 82%.

Regarding `CCOC(=O)c1ccc2[nH]c(CSc3nnc(-c4cccc(F)c4)n3C)cc(=O)c2c1`, the survival is inactive: 65%.

For the compound `Cc1ccc(-n2nc(C(=O)N3CCN(c4cccc(C(F)(F)F)c4)CC3)c3c4ccccc4n(C)c3c2=O)cc1`, the survival is inactive: 75%.

For `Cc1ccc(C)c(-c2[nH]c3c(c2-c2c(-n4cccc4)n(C)c(=O)n(C)c2=O)c(=O)n(C)c(=O)n3C)c1`, the survival was inactive: 82%.

Take `CCOc1cc(C2c3c(oc4ccccc4c3=O)C(=O)N2c2ccccn2)ccc1O` (stereo not drawn): the survival is inactive: 111%.

Regarding `Cc1cccc(NC(=O)COc2cccc3c(=O)n(C)ccc23)c1C`, the survival was inactive: 73%.

Take `Cc1ccc(CNc2nccn(-c3cc(C)cc(C)c3)c2=O)cc1`: the survival is inactive: 76%.

Regarding `CCOC(=O)c1c(NC(=O)c2cc(Cl)ccc2Cl)sc2c1CCCC2`, the survival was inactive: 76%.

Turning to `COc1ccc(OC)c(NC(=O)c2cc(=O)c3c(C)cc(C)cc3o2)c1`, the survival is inactive: 87%.

As to `Cc1ccc(CNc2cc(C)nc3nc(-c4cccc(C)c4)nn23)cc1`, the survival was inactive: 146%.

With `CN(C(=O)CSc1nc2ccc(NC(=O)COc3ccccc3)cc2s1)c1ccccc1`, the survival was inactive: 84%.

Take `Cc1cc(C)n(CCc2nc3c4ccccc4nc(N4CCN(c5ccc(F)cc5)CC4)n3n2)n1`: the survival was inactive: 77%.

With `Cc1cn2c(=O)c(S(=O)(=O)NCc3ccccc3Cl)c(C)nc2s1`, the survival was inactive: 88%.

Consider `CCOC(=O)c1cccc(NC(=O)CCc2c(C)nn(-c3ccc(N4CCOCC4)nn3)c2C)c1`, for which the survival is inactive: 152%.

`CCOc1ccccc1C(=O)NC1CCSC1=O` (stereo not drawn): the survival is inactive: 106%.

For `CCN(C(=O)CSc1nc2ccccc2n1CC(=O)Nc1ccc(F)cc1F)c1ccccc1`, the survival is inactive: 73%.

As to `COc1ccc(-c2ccc(CCC(=O)O)n2-c2ccc(Cl)cc2C)cc1`, the survival was inactive: 70%.

For the compound `CCN(C(=O)CSc1nc2n[nH]c(C)c2c(=N)n1-c1cccc(OC)c1)c1cccc(C)c1`, the survival is inactive: 67%.

For `COc1ccc(C2Oc3nc(SC)nnc3-c3ccccc3N2C(C)=O)cc1` (stereo not drawn), the survival was inactive: 65%.

In the case of `CCc1ccc(-n2nc(CO)c(C(=O)NCc3ccccc3OC)n2)cc1`, the survival is inactive: 88%.

Turning to `Cc1ccc2[nH]c3c(=O)n(CC(=O)NCCc4ccc(Cl)cc4)ncc3c2c1`, the survival is inactive: 63%.

With `COc1ccc(NC(=O)C2CCN(c3cnccn3)CC2)cc1Cl`, the survival was inactive: 83%.

Turning to `CCn1cc(S(=O)(=O)c2cccc(C)c2)c(=O)c2cc(F)c(N3CCN(c4ccccc4)CC3)cc21`, the survival is inactive: 69%.

Consider `COCCCn1c(=O)c2sccc2n2c(CCCC(=O)NCc3ccc(F)cc3)nnc12`, for which the survival was inactive: 106%.

Regarding `CCN(CC)CCCNC(=O)CSc1nc2nc(C)c(Cc3c(F)cccc3Cl)c(C)n2n1`, the survival was inactive: 144%.

As for `Cc1nn(C(=O)c2cc3sc(Br)cc3[nH]2)c(C)c1C`, the survival is inactive: 97%.

Regarding `CCc1ccc(-n2nc(CO)c(C(=O)NCC(c3ccccc3)c3ccccc3)n2)cc1`, the survival was inactive: 90%.

Turning to `Cc1ccc(N(Cc2cc3ccccc3[nH]c2=O)C(=O)c2cccc(Cl)c2)cc1`, the survival is inactive: 86%.

In the case of `Cc1ccc(-c2cn3c(n2)sc2cc(C(=O)NCc4cccs4)ccc23)c(C)c1`, the survival is inactive: 77%.

As for `COc1ccc(Cn2ccc3nc(C)c(C(=O)N4CCN(c5ccccc5OC)CC4)cc3c2=O)cc1`, the survival is inactive: 66%.

With `CC(C)NC(=O)C(c1ccccc1)N1Cc2ccccc2C1=O` (stereo not drawn), the survival was inactive: 73%.

Consider `CC(C)c1ccc2occ(CC(=O)Nc3ccccc3Cl)c2c1`, for which the survival is inactive: 81%.

Consider `Cc1cc(C)nc(/N=C(\N)N2CCc3ccccc32)n1`, for which the survival is inactive: 98%.

`COc1ccc(OCC2c3cc(OC)c(OC)cc3CCN2C(=O)COc2ccc(Cl)cc2Cl)cc1` (stereo not drawn): the survival is inactive: 77%.

As for `Cc1ccc(CSc2nnc(-n3c(=O)c(C#N)cc4c(=O)n5cc(C)ccc5nc43)s2)cc1`, the survival is inactive: 112%.

Consider `COc1ccc(-c2noc(CSc3nc(C)cc(=O)[nH]3)n2)cc1OC`, for which the survival is inactive: 52%.

As for `Cc1ccc(C)c(NC(=O)Cn2c(=O)n(Cc3ccc4c(c3)OCO4)c(=O)c3oc4ccccc4c32)c1`, the survival was inactive: 88%.

Regarding `CC1=C(C(N)=O)C(c2cccc(C)c2)n2nc(-c3cccc(C)c3)nc2N1` (stereo not drawn), the survival is inactive: 64%.

Regarding `CCOC(=O)C1CCN(S(=O)(=O)c2ccc(N3CCCCS3(=O)=O)cc2)CC1`, the survival is inactive: 69%.

Consider `COc1cc(C(Nc2ccc(S(=O)(=O)N3CCCC3)cc2)C(=O)NC(C)(C)C)cc(OC)c1OC` (stereo not drawn), for which the survival is inactive: 105%.

For the compound `Cc1ccc(CNC(=O)c2cc(-c3ccc(C)cc3)nc3n[nH]c(-c4ccc(F)cc4)c23)cc1`, the survival is inactive: 58%.

On to `CC(C)C1N=C2c3ccccc3N=C(SCC(=O)NCc3ccccc3Cl)N2C1=O` (stereo not drawn), for which the survival was inactive: 95%.

Take `CCn1c(SCc2ccc(F)cc2Cl)nc(=O)c2c(C(=O)OC)cc(C3CC3)nc21`: the survival is inactive: 84%.

Regarding `CCCn1c(=O)c2sccc2n2c(CCCC(=O)Nc3ccc(Oc4ccccc4)cc3)nnc12`, the survival is inactive: 108%.

With `O=C(c1ccc2c(c1)CCN2S(=O)(=O)c1ccc(Cl)cc1)N1CCN(c2ccccc2)CC1`, the survival is inactive: 87%.

Regarding `COc1ccc(OC)c(CNC(=O)c2c(C)oc3ncn(C)c(=O)c23)c1`, the survival was inactive: 70%.

In the case of `CCOc1ccc(CN2C(=O)c3ccccc3Sc3ccc(C(=O)OC)cc32)cc1`, the survival was inactive: 71%.

For the compound `CC(=O)Nc1ccc(S(=O)(=O)NCc2cccn2Cc2cccc(C)c2)cc1`, the survival is inactive: 70%.

In the case of `COc1ccc(N2CC(NC(=O)c3ccco3)CC2=O)cc1OC` (stereo not drawn), the survival is inactive: 68%.

On to `O=C(CSc1nnc(Cn2nnc3ccccc32)o1)N1c2ccccc2CCc2ccccc21`, for which the survival was inactive: 95%.
